This is one part of the list.
T1: UNK ZnF1-3 (human, UniProt Q9C0B0 31-174)
T1 sequence: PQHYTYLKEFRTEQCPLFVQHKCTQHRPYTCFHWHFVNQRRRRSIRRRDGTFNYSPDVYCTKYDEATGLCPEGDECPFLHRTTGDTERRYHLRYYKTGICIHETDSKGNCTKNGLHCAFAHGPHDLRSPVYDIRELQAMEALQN

B1: chr2:232320318:232320319:-_ENSG00000115053_ENST00000322723|hu_hu|hu_hu_hu_mus_True|48_68 (ssRNA)
RNA: GGGAGUUCUACAGUCCGACGAUCACUAUUAAAGUCUACAAAACCAAACCCUUUGGAAGAACCAGUUUCCCGGUCAGUGACUAUUCUUGCCCGAACGGAGCCCUCAAAUGAUUCUUUUAAGGUCUCUUCAGUGGUAUCCUCAGACAACAGAGGAUUGAGCAUCA
B2: chr8:11702082:11702083:-_ENSG00000164733_ENST00000533455|hu_mus|motif|central (ssRNA)
RNA: GGGAGUUCUACAGUCCGACGAUCCUAUAAAACCAGUACAGCUCUUCAUACUUGGUUGAGGUACACAAAGCAUAAAAAUCCGGUUGAAAAAGCAUCGGCUGAGGACAGGACCAAGGAGAGCUGGCCACAUUACCAAUGUCGAUGCAACAGAGGAUUGAGCAUCA
B3: chr9:95013113:95013114:-_ENSG00000196305_ENST00000443024|hu_hu|hu_hu_hu_mus_False|8_68 (ssRNA)
RNA: GGGAGUUCUACAGUCCGACGAUCCUCAGUCAGAAAGGGCGUGUAAGGGGCCAUCAGUCUGCACAGAGAAAGCAGAACACUGAACAGUGUCUCCAGAGCCAUGACACAGUCUUCCACCCCACUCUCACCCUUUAAUCUCCUCCUCAACAGAGGAUUGAGCAUCA
B4: chr2:134423880:134423881:-_ENSMUSG00000034723_ENSMUST00000038228|mus_hu|FALSE|FALSE (ssRNA)
RNA: GGGAGUUCUACAGUCCGACGAUCCUAGCUGUGAAAGAUUUUUCAUGCACUGUGGUGCCUGAUGUUUCCUGCAAUUUGACAAAAAUAAAUACUUUACACAAGAAAAGGAUGCAAGGCUUCUACGUUACACUUUGGGGAUGCUCACAACAGAGGAUUGAGCAUCA
B5: chr7:35674789:35674790:-_ENSG00000122557_ENST00000396081|hu_hu|FALSE|FALSE (ssRNA)
RNA: GGGAGUUCUACAGUCCGACGAUCUCCAGCUUGGUGUAAAUAAACCAGUAGCAUGGCUCCCAUUACCAUGAUAAACCGACUAAAAGAAGAAUAGAAGUAUACAAUGCUAAGGAGAAUCGCAGCUCGUGAGAACGUGUACAUCCACAACAGAGGAUUGAGCAUCA
B6: chr17:45705486:45705487:-_ENSMUSG00000023944_ENSMUST00000024739|mus_hu|motif|central (ssRNA)
RNA: GGGAGUUCUACAGUCCGACGAUCAUUGGCUGUCCAGCCGUAGGUGCUGGUCACAAUGCAGCAAGGUGAAGACACAAGUCGGUUGGAGAUUGUCACCUUCUCAACCUUCUUAUCUAAGAUUUCUUUCAUGAGCUUGCAGAGGUUCAACAGAGGAUUGAGCAUCA
B7: 10179666_10186851_1820_CDS_ENSG00000130939_ENST00000377157|human|control|control (ssRNA)
RNA: GGGAGUUCUACAGUCCGACGAUCCUGCUUGAACACUUCUUCAUCCUGGUGAGUGGUUCUCACCAGUUCCUGAAUGAAGCCAUAUGGGAGAUUCCUACACAGCAUAUACGGCACUAGGAAGGACGGCUGCUGCAAGGACCUGGGCAACAGAGGAUUGAGCAUCA
B8: chr12:76453654:76453655:-_ENSG00000187109_ENST00000548044|hu_mus|FALSE|FALSE (ssRNA)
RNA: GGGAGUUCUACAGUCCGACGAUCUGGUUUCCACUCGCAUUCUUCUUCUGUAGGUUCAUAGAUUGCAUUAAUGAUCUCAAAUCGCUUAUCAAAUAAAGGCUGAUAGAGAACAGCAUACUUCCUCUCGAGAUCAUGAACUUCCUCCAACAGAGGAUUGAGCAUCA
B9: chrX:65951094:65951095:+_ENSMUSG00000000838_ENSMUST00000114657|mus_hu|FALSE|FALSE (ssRNA)
RNA: GGGAGUUCUACAGUCCGACGAUCCUGCCUUGAACUCUCCAGCUGCUUACUAGCUUCUUCAUUUCUCAUUAUCAGAGACAACUUAGUGCGCAGACUCCGAAAGUGCAUGUCAAUCAGCAUAUGUGCUCGCUUUGAGGUGACUUCCAACAGAGGAUUGAGCAUCA
B10: 150444430_150444550_3070_CDS_ENSG00000163125_ENST00000369068|human|control|control (ssRNA)
RNA: GGGAGUUCUACAGUCCGACGAUCUGAGAGACUGACACCAUCACUUGGAGUGCCCUUGCUGGGAGCCUGGCCAAAAUGCUUAUCAUCUGAGGGCUUACGUGAGGCGUUUUUAAGCAUAUUCUUAAAUUCAAUCGUCGACGUGGUCAACAGAGGAUUGAGCAUCA
B11: chr4:13698614:13698615:+_ENSMUSG00000006586_ENSMUST00000098257|mus_hu|FALSE|FALSE (ssRNA)
RNA: GGGAGUUCUACAGUCCGACGAUCACUCAGUGCUCUCCAAGUGUUUCUUUUGACAGAUAUCAUUCUCCACCAAUCGCUCUGCUAAUUUCCUCUCUCCUUUUCUGACUGGGACAGAGAUUAUGUUCACCAGCCCAGAGAUCAAUCCAACAGAGGAUUGAGCAUCA
B12: 168329133_168329253_1585_CDS_ENSMUSG00000040596_ENSMUST00000169324|mouse|control|control (ssRNA)
RNA: GGGAGUUCUACAGUCCGACGAUCAUCCAGCACCUGCAGCUGGGAGGUCAGGCCCCCUGGGAUGAUCACCAUGUCCGUGUUCAUGUUCUCCAUGGAACUCUUCACAGAGUCAGUGGCAUGGCACCGGAAGCCAUUCAGGAUCAGCAACAGAGGAUUGAGCAUCA
B13: 31773265_31773385_1100_CDS_ENSMUSG00000020300_ENSMUST00000109412|mouse|control|control (ssRNA)
RNA: GGGAGUUCUACAGUCCGACGAUCGUUCAAGCUAUCUUCCAUCCAGGAUUUUGGAGCAAAGGCUGAGCUAGGGCGAGCAUACUUCUGGAGCUGAAUAUGAUUGCUUGCGAAAUUUUUCUUCAAAGGUGAGAUUGAGUUCAGGGGCAACAGAGGAUUGAGCAUCA
B14: chr19:36967751:36967752:+_ENSMUSG00000024811_ENSMUST00000025729|mus_mus|motif|central (ssRNA)
RNA: GGGAGUUCUACAGUCCGACGAUCAAAGUGAUACUUAGGGAUACUUGUACCAUCACUCUCUUCUUAUGGAACACUGAAGACGGAUUACAGACAUGUCAUUAGCAUAUGGAAAUAUAAAAUACACUACUUUUUUUUCCUUUUAGACAACAGAGGAUUGAGCAUCA
B15: chr5:162900210:162900211:+_ENSG00000072571_ENST00000358715|hu_hu|motif|central (ssRNA)
RNA: GGGAGUUCUACAGUCCGACGAUCUUCGAUGUAUUCCAAGAGUUUUUCUGUUUCAGAUUUUUCAUCAAUCUUUUCUUUCUCGGUUGAAACAAGUUUUCCCUCCAGUUGGGCUAUUUUCCCUUGAGACUCUUCGAGACUCCUUUGCAACAGAGGAUUGAGCAUCA
B16: 60623417_60623537_136_5pUTR_ENSMUSG00000026014_ENSMUST00000140485|mouse|control|control (ssRNA)
RNA: GGGAGUUCUACAGUCCGACGAUCCCCUCGGCCCUCCCGGAGCCCUGCGCUAGGCAGCAGCUGCUCGCGCCUCCAGUCGCCGCCGCCGCCGCCUCUCCAGGGGCGACGCUCCUCUCCCGAACGCUGAGAGCGCCCGCAGCUCCCCAACAGAGGAUUGAGCAUCA
B17: chr2:48026839:48026840:+_ENSG00000116062_ENST00000540021|hu_hu|hu_hu_hu_mus_False|1_8 (ssRNA)
RNA: GGGAGUUCUACAGUCCGACGAUCAUAGUGAGCCACUAGCGUCCUAAAUCUGGAACAGUGGCGGUCAUCCGAAAACUGGCCGAUGAAAAACUUGCCCAGUGAAGUGUCCACAAAGCAAACACCAUACGCACGAGUAUGGCCAGACAACAGAGGAUUGAGCAUCA
B18: chrX:71099370:71099371:-_ENSMUSG00000031391_ENSMUST00000102871|mus_mus|FALSE|FALSE (ssRNA)
RNA: GGGAGUUCUACAGUCCGACGAUCUUUAUUUUUCGUGGAGUAGGGUCAUCAAAGCUAACUGCUAUAAAAUGGAGAAACCACCUAGAGACUCAGACAUCUGCCUACACACUAGUGGCAUAUGGGGAAAGGGCAACGGCACAAACUCAACAGAGGAUUGAGCAUCA
B19: chr9:33280828:33280829:+_ENSG00000086065_ENST00000223500|hu_mus|motif|central (ssRNA)
RNA: GGGAGUUCUACAGUCCGACGAUCAGUCCCAGAAUACUUCUCUUGUUGUUUCACAUCACGUGCUGGAAUGUUGUAAGUCGGCGAAGCGGGAAUCUGCGGCAGUCCAAAUUCAUCCACCAGCACGCCAUCCUUGUUUUUUGUGUCCAACAGAGGAUUGAGCAUCA
B20: chr10:1063573:1063574:+_ENSG00000107937_ENST00000545048|hu_mus|FALSE|FALSE (ssRNA)
RNA: GGGAGUUCUACAGUCCGACGAUCACUAUGUUUUUGCUGGGUGUUUACUUUGGAUAAAAUGGUUGAAGUUACAAUGAUACAUUGUACUACAGGUUUAGAAAAUAAUUUAAGAGUAGUUUAAGCUCUGAUAAACCCUAAAUGUAACAACAGAGGAUUGAGCAUCA
B21: 108478272_108478392_758_CDS_ENSMUSG00000066357_ENSMUST00000068700|mouse|control|control (ssRNA)
RNA: GGGAGUUCUACAGUCCGACGAUCCCGACCCCCAGGCACCCGGAGGUCCCCCACCUUCCAGAGACGAACACUUCGGUCUUCUGAAGCAGUUGCCAGCAGGCCCUUGCUUUCCAGGUAUGACAUGCUAAAGAUGACACCCACAUGCAACAGAGGAUUGAGCAUCA
B22: chr9:26905460:26905461:-_ENSG00000137055_ENST00000397292|hu_hu|FALSE|FALSE (ssRNA)
RNA: GGGAGUUCUACAGUCCGACGAUCUAUUCUCUUUUUUUAAUUAUCUGUUAUCAGUCAUGUCAAAUGUGAGGAAAAAAACACUAAUCAAUUAAAAAUAUCCGUCCCUCUUCCCCACUGCUACAGCAAAUUUAGGAUAAAUCUACACAACAGAGGAUUGAGCAUCA

What follows are binders tested against T1, UNK ZnF1-3 (assay: nsRBNS (natural sequence RNA bind-n-seq); RBNS binding buffer (assumed for nsRBNS): 25 mM Tris pH 7.5, 150 mM KCl, 3 mM MgCl2, 0.01% Triton X-100, 500 ug/ml BSA, 20 U/ml SUPERase-In, 4 C; UNK is unkempt and MSI1 is Musashi-1; names of the RNAs are library labels; protein concentration not given here; high values mean tight binding).

Binder	binding signal [enrichment R]
B1	0.476
B2	0.785
B3	1.26
B4	1.26
B5	1.35
B6	0.858
B7	0.917
B8	0.85
B9	0.798
B10	0.984
B11	0.815
B12	1.34
B13	2.27
B14	1.05
B15	0.371
B16	1.08
B17	0.92
B18	1.8
B19	0.848
B20	1.17
B21	1.54
B22	2.03

Source: paper PMC12136788
